Test results reported in the supplement of paper PMC11417369.
Some of the results follow.

These sequences were tested on PF3D7_0420300 AP2 domain 1 (GST-tagged) (assay: gcPBM binding intensity (ln(normalized median fluorescence intensity)); higher = stronger DNA binding).
How it was run: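 Using an Agilent 4 × 180k array, primer-extended double-stranded 36-bp intergenic genomic probes and negative controls were exposed for 1 h to GST-fused P. falciparum DNA-binding domains expressed in E. coli. Binding was carried out in 1× PBS with 1% milk, 0.2 mg/ml BSA, 0.5% salmon testes DNA and 0.03% Triton X-100, and protein was detected with Alexa488 anti-GST antibody and a 488 nm scan. Binding intensity is the highest Masliner-normalised natural-log median intensity across replicate spots of either probe orientation.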

| Sequence | gcPBM binding intensity (ln) |
| --- | --- |
| AATCCACTTTTTTATGTTATACAATATAAATTAAAT [XGTACX_negctrl_site446] | 9.17 |
| GGCTAAAAGGGGCACACACACAAAAAAAAAAAAAAA [CACACA_site3288] | 9.59 |
| ATTTAAGAAAAAAGTTGTACTTATTTATTTTTATTT [XGTACX_site5561] | 9.12 |
| ATACATATAAATAATTGTACTATTAAAAAAGAACGT [XGTACX_site3751] | 9.4 |
| CAATTAGCATTTTATTGTACATTTATAATCTATGAT [XGTACX_site1445] | 9.25 |
| AAAAAAAAAAATACTCGTACATAAACCTATACATTT [XGTACX_site6494] | 9.44 |
| CTTAGAATATATGAATGTACTTTTTTTTTTAAATAA [XGTACX_site6048] | 8.7 |
| AGTATACAGATATATACACACATATATATATATATA [CACACA_site4323] | 9.39 |
| ATAATATATTTTTGTAGTACACTTCTGGTAATATCG [XGTACX_site2402] | 9.31 |
| TATATATATATATGTTGTACAAAAATGTAAAATATA [XGTACX_site7761] | 9.24 |
| TCATTTTATTTTTTCACACACACATCTATATTTATA [CACACA_site7547] | 10 |
| ACAAAAATAAACTATAGTACACACTTATTATTATGA [XGTACX_site5680] | 9.39 |
| TAAGTAACTTTTAAAAGTACCCACACATATATATAT [XGTACX_site1231] | 9.42 |
| TTTCTTTTTTTTTTTTTTTTTTTTTTTTTTTTTTTT [TGCATGCA_negctrl_site91] | 9.1 |
| AAAAAAAAGAAAAACACACACATATATATATAGAAT [CACACA_site1006] | 10.2 |
| TTTCCCTTGTTGTAAACATGCACAATATTTAGGTAT [TGCATGCA_site49] | 9.3 |
| TATATTTATAGGTATACACACATATGTATGTTATGT [CACACA_site7824] | 9.5 |
| TTATGTATTTATATAAATATAAATATATATATATAT [CACACA_negctrl_site774] | 8.99 |
| TCTTAATATCGTTTCTCACACATATACAAACATAAA [CACACA_site5700] | 9.27 |
| TATTATAGAAATTTAATGTTGGACAAAAAAATGAAA [CACACA_negctrl_site1351] | 9.25 |
| AATATATGAATTATATGTACATATAGATAAGTCACA [XGTACX_site7637] | 9.32 |
| AGAGAGAAAGCTATAACATGCAACAATTTTTAGAAC [TGCATGCA_site596] | 9.46 |
| AAATTATTTATTTTATGTACATATTATTAAAGTTAA [XGTACX_site552] | 9.07 |

| Sequence | gcPBM binding intensity (ln) |
| --- | --- |
| ATAAATGACAAATTAACACACATATATTATAGATAT [CACACA_site7770] | 9.68 |
| AAAATGTGATATGTAAATATATATGTATGTATATAT [CACACA_negctrl_site1748] | 9.42 |
| ATCTATATTTAATTTACACACAAAAAAAATTGTTGG [CACACA_site6582] | 9.53 |
| TAATGCATTTTCGCATGTACATATTTCTCTTTATAT [XGTACX_site8915] | 9.23 |
| ATAATATTAATATGTACACACCTTAATCCTTAAAAG [CACACA_site7640] | 9.28 |
| GTATTTATATGATTAACACACATATGGGTATTAATA [CACACA_site4853] | 9.34 |
| TATACCTGAATTAAAAGTACATGTATATATTTTCCC [XGTACX_site3594] | 9.18 |
| ATAATTTTTTAAGTGTGTACTAAAATGTGTATTTTA [XGTACX_site6227] | 9.36 |
| TTGCATTTTCTAGTAACACACAATTAGCGTTGCTGT [CACACA_site3594] | 9.32 |
| TAACAAAAAGGGAACACATGCGCTCTTTATTTATTT [TGCATGCA_site620] | 9.38 |
| TATAGAAGCATTCACACACACACATACATACACATA [CACACA_site1466] | 10.2 |
| ACACATACATATACATACACATTGTTTTCATGCATC [XGTACX_negctrl_site126] | 9.52 |
| TATATGTGTCTACAGGTGCATATATCATATATTGCT | 9.27 |
| TATAAATATTTATACACACACATATATTTATATATC [CACACA_site6366] | 9.82 |
| TAAATAAATTTATACACACACACACGGATATAAATA [CACACA_site6532] | 10.1 |
| ATATTTTCTTTAAATTGTACATATTGTGATACAAAA [XGTACX_site5886] | 8.92 |
| TATGTATTTTTATGCACACATGCGTGGCTTATATAA [CACACA_site387] | 9.26 |
| TATATACATACATGTAGTACCTAATTCGGTCCCGTA [XGTACX_site2702] | 9.2 |
| TTTCATTTAGCTTTTACACACTATATATTATTGATT [CACACA_site16] | 9.59 |
| GTTTGGTGGTGTTTTGGTACGTACGGGGGGGTATGT [XGTACX_site1983] | 10.9 |
| TTTTTTTTTTTTTATTGTACTTATTTTTTTATGTTT [XGTACX_site7725] | 9.43 |
| GTATTATATATATAGGTGCATATATATATATAAATA [GTGCAC_site9787] | 9.14 |
| AAATATAAAGGATTAATATTATATATATATATATAT [XGTACX_negctrl_site211] | 9.06 |

| Sequence | gcPBM binding intensity (ln) |
| --- | --- |
| TTGAAATATACGTAAGTAAATTTCATTTGGTTGTGT [XGTACX_negctrl_site600] | 9.14 |
| AAAATATTTATTACTTCACACATTATTGTATTTATA [CACACA_site5082] | 9.46 |
| CATATATTATTATATGCACACATGAAAATATACAAA [CACACA_site2795] | 9.49 |
| GTATAACTTTTGCGCGTACACACATTTATCCTCTTT [CACACA_site208] | 10 |
| TTTCTTTTTTTATAATCCACATTGGGAAAATCAAAA [TGCATGCA_negctrl_site159] | 8.72 |
| ACGTATAATATGTACACACACATATATACAAAAAAA [CACACA_site917] | 9.71 |
| TAGAATATCCCCTACACACCCAAATAATTTACAAAT [CACACA_site4825] | 9.72 |
| AAAGTTGTTACGAACATACACACGAACATACTCACG [CACACA_site604] | 9.6 |
| ATACGTGGGCAAAAAGTGCATATAATCAAAAAAAAA [GTGCAC_site9961] | 9.18 |
| ATATATATATTTGTATGTACATATCATATTGTGTGT [XGTACX_site1580] | 9.69 |
| AAGATATTTGAATATACACACGATTTAAATTTAATA [CACACA_site3866] | 9.31 |
| TTCTTTCTGTTTTATTTATAATAATTTATGATAAAA [CACACA_negctrl_site766] | 9.19 |
| TGTTTTTAATTTCGCACACACCTTGTGGAAAAAAAA [CACACA_site4482] | 9.19 |
| AGAAAGAATGAAAAATGTACATATATGTAATAGCTA [XGTACX_site364] | 9.44 |
| TAAAATTTAAAAAGGTGTACACTATAAATTAAAATA [XGTACX_site2081] | 9.19 |
| TTAACATATGACATTTTTTCACCCTTCCTTTATTTT [CACACA_negctrl_site1192] | 9.57 |
| ATAAAATCATTCAATGGTACAGAAATACAAAATGTA [XGTACX_site6739] | 9.31 |
| TATGTATAAAAATATTGTACATATTATATATATATA [XGTACX_site2947] | 9.05 |
| TTTTTTTTTTTTTTTTTTTGATTCTTATAAAAATTT [GTGCAC_negctrl_site240] | 8.26 |
| AGGTCACATTTGTCCTCACACATAGATAAATATATA [CACACA_site5460] | 9.14 |
| ATAATTTGATCAATTTTTCATTTTTCATTTTTTTAA [CACACA_negctrl_site1252] | 9.06 |
| AATTAGCATTAAAAATGTACAAAAGAAAAAAATATA [XGTACX_site3816] | 9.21 |
| GTCAAAAATAATATATGTACTTATAATAGATAAATG [XGTACX_site7755] | 9.2 |

| Sequence | gcPBM binding intensity (ln) |
| --- | --- |
| ATGATATGGATAAATACACACAATAAAATAATGTCT [CACACA_site6786] | 9.54 |
| TTTTAACAAAACAAAACAAAATAATATAAAGATAAC [TGCATGCA_negctrl_site154] | 9.57 |
| TTTATTTATTTATGTTGTACAAGTTTATACTGGAAT [XGTACX_site6479] | 9.21 |
| TTTTGATATAAAAAAAGTACATTAATAATATTAATT [XGTACX_site4248] | 8.87 |
| CAGTATTCTTCTATATGTACTTATTTAAATATTCTT [XGTACX_site7555] | 9.43 |
| TAAATAATAATAAATGTGCACAGGTATTAACAAAAA [GTGCAC_site9988] | 9.62 |
| AATCAAAATTCATTAACACACAATTTTAATATTCTT [CACACA_site5178] | 9.27 |
| TATTTTTATAAGAGCATGCACTGTTTAAAATGGTAT | 9.13 |
| TTTTTTAAAATATGGACACACATATATATATATGTA [CACACA_site2784] | 9.06 |
| AATGACTACATAATAGTGCAATATTAAAGAAAATTA | 9.23 |
| TGTATATCATAAGATGGTACACGTGTGTGCGTATGC [XGTACX_site2255] | 9.49 |
| ATTCTTAAAAAAAAATGTACACATGAACAATATGTA [XGTACX_site362] | 9.06 |
| AGGTGAATATTTTTTACACACATAAAAAAAATATAT [CACACA_site57] | 9.37 |
| TATATATTATATATGTGTACTCACTAACAAAAATTA [XGTACX_site6285] | 9.04 |
| TTTAAGATTTTGTAATGTACATATATACATATATAT [XGTACX_site399] | 9.12 |
| AAATTATATAAAGGAACACACATTTTATTTTATTTT [CACACA_site1500] | 9.32 |
| TATATTTTTATAATAACACACGATATATGTTTAGGA [CACACA_site1283] | 9.27 |
| TATAAATCTATAAATGCACACAAGGGAAGAAAAACG [CACACA_site2965] | 9.84 |
| CAAACAATTAAACAAACACACATATACAAGTATATA [CACACA_site8639] | 9.71 |
| TATTATTCCAAGAAAAAAAAAAATAAAAAAAAAAAA [CACACA_negctrl_site1424] | 8.87 |
